Test results taken from the supplement of paper PMC11417369.
The list shows a part of the results.

system: PfSIP2 AP2 domain 1 (GST-tagged); assay: gcPBM binding intensity (ln(normalized median fluorescence intensity)); higher = stronger DNA binding
Method in brief: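 GST-tagged P. falciparum DNA-binding domains produced in E. coli were incubated for 1 h on an Agilent 4 × 180k array of primer-extended double-stranded 36-bp intergenic genomic probes with negative controls. Binding intensity is the highest Masliner-normalised natural-log median intensity across replicate spots of either probe orientation, with bound protein detected by Alexa488 anti-GST antibody at 488 nm.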

Sequence	gcPBM binding intensity (ln)
ATAATTCTTTTACTGTGTACATATTATCACTTATTT [XGTACX_site2456]	7.42
TGTAATTGTTTAAAGGGTACATATATCAGATGTCTT [XGTACX_site5877]	6.96
TTTTGTTTTTGTAGAGTGCATAAAGAAGATATGTAT	8.46
TGGAAACAATGACACACACACAAAAAAAAAAAAAAA [CACACA_site7494]	6.96
ATAATAATATTTCTATGTACTTATTTTATGTATTAG [XGTACX_site1747]	6.99
TATAAATACTTAGAAACACACAAAAATATTTTATAA [CACACA_site7259]	6.84
AAAAATTAAAATATAACTAATTAATTTGTATTCATT [CACACA_negctrl_site1633]	6.56
GTAGGGGAAAAAAAAACACACAAAAAACAACAGATC [CACACA_site1187]	7.26
TTATCTCTACAAAGTGCACACACGTAAAAACATATA [CACACA_site3957]	10.4
TTTTTATATTTCAACATATCACAATTTTATATATCT [CACACA_negctrl_site178]	7.04
ATATATATATTATATGCACACTTATATTTCATTAGA [CACACA_site5439]	8.27
TATTTATAAATGAACACACACGCAATTTGAATCGAA [CACACA_site3371]	7.32
AACACATACAGATATGCACACATTTTATTCCATTAT [CACACA_site5565]	7.45
CTATATCATTTTCTAGCACACACATTGTTATTACCT [CACACA_site8204]	7.13
GAATATAAACCTATTACACACATCTATATGTACATT [CACACA_site1914]	7.04
TTTTTTATGCTAACTTCTTTTTCCTTATAAAATTGG [TGCATGCA_negctrl_site598]	7.06
ATTTTTTTTATTATTACACACATATAACAAAAAAAT [CACACA_site6934]	7.32
AAAAAGAAAAAATATATTCGTCTATTATAAACAATA [CACACA_negctrl_site648]	6.64
TAAATATTAACAATCGCACACATATTATTTTTCCAA [CACACA_site1626]	6.97
AAGGTAAACAGACACACACACATACAAAAAAAAAAA [CACACA_site3768]	7.18
GAATATATATTCATATGTACACAATTTATGTATTAT [XGTACX_site4719]	7.06
TAAATATATATATACACACACACCAAAGCAATAGAT [CACACA_site2940]	7.19

Sequence	gcPBM binding intensity (ln)
ATTAAATATGTCAAGTGTACAAAATGTAAAAAAAAA [XGTACX_site4119]	7.07
TTATATATACCTAAGACACACACATATATATATATA [CACACA_site8153]	9.25
GCCATTGTACCATCCACACACATATAAATATGTATA [CACACA_site7303]	7.68
TATGAAGAAAAGAATTGTACGATGTTTATTTTGTAT [XGTACX_site8614]	6.96
TGTTAATAGAAATACGTGCACACTAAAGGGAAAACA [CACACA_site1485]	9.99
TTGTTATCTACCTGTAGTACATATATTATGTAATAT [XGTACX_site735]	7.03
TATATAACATATAACACACATACTTAGTATTACATA [CACACA_site3099]	7
ACAGTATCAATATGGATAAAAATGTCCATATGCCTG [TGCATGCA_negctrl_site482]	6.59
TACGAAAAAAAAAAAAAAAAAAAAAAACACAAAAAA [CACACA_negctrl_site1643]	6.8
AATACCATAATCAATGCACACATAACAAAATATTAT [CACACA_site8873]	7.38
TTTTTATATTTTATAGTGCAAAAACTTACATAAAAT	8.18
ATATAATGGACCATAGTGCATAAAAATAACAAAAAA [GTGCAC_site9558]	8.3
TGGAAATATATATATATATATACATATATATATAGC [XGTACX_negctrl_site107]	7.5
TTTTAATATTTTAAGAGTACAGAAATATATAATATG [XGTACX_site4955]	7.21
ATTTTATAACATTCATGTACACATTTCATTTATTTG [XGTACX_site3028]	7.26
CATATAAATATATATACACACACACCGTAATACATA [CACACA_site9158]	7.16
AGAGACACTTTTTATTGTACAAGAGGAGGTTACCTT [XGTACX_site8768]	6.61
TTTTTTTTTAAATATACACACACATTTATACATATA [CACACA_site9122]	6.96
TTTGGAATATAATATTGTACATATTATATATATATA [XGTACX_site3187]	8.71
TTCTATTATGTGACTCAATTCTTCATGGGTGTATAA [TGCATGCA_negctrl_site140]	7.18
AATGTATTTATTTTTTGTACATATCGTGTGTGTATT [XGTACX_site1009]	7.17
TTATTTATTTTTATATGTACACAAAAAAAAAAAAAA [XGTACX_site1459]	7.13

Sequence	gcPBM binding intensity (ln)
AATATATATAACGTTGGTACACAAAAATTATTAAAT [XGTACX_site8572]	7.32
CCTCATCCACTATGCACACAAAAAAGAAATACACTA [CACACA_site3422]	7.72
TTTTTTTTTTTTTTAACACACATATATATATTTTTC [CACACA_site1922]	6.9
TAATGGATTATACGTGCACACATATATACAAATAAA [CACACA_site8116]	10.5
TTCTTCAATAATAAGTGTACATATGCATACATTATA [XGTACX_site1502]	7
ATAATAAAATAAGAAGCACACAAATATTATATATAA [CACACA_site9319]	6.98
AATTAAAAAATTTATGCACACTTTAAAAAAAAAAAA [CACACA_site5962]	7.62
ATATTAATTTCTTATGCATGTTCTACCAAATTGTAT [TGCATGCA_site38]	6.97
AAAAAAAATAAAAATAGTACTCAAAAAATTATGAAT [XGTACX_site3073]	6.87
GATATGATATGATATGCATGTAACAAATTTTTTTAA [TGCATGCA_site268]	7.59
AAAAAAAAATATATATATATATATATATTTATGTAT [GTGCAC_negctrl_site483]	7.46
AATTATTCTCTTTTCATTTGAACAATATGCTTAAAA [CACACA_negctrl_site995]	6.99
AATATTTTTTAAATGTGTACATAGGTATAGCACACA [XGTACX_site8690]	7.1
AGTCATATAAATAGTAGTACTGTGTGTGAAGAAAAA [XGTACX_site5056]	7.42
ACACATTCGAAAAATTGTACATATATAACAGAATAT [XGTACX_site7106]	7
ACAAATATGAGAAATTGTACATATAATAAAATAGTA [XGTACX_site2573]	6.93
GACTGCACTTTAAGCACACAAATATATTTTTTTTAT [CACACA_site1249]	8.41
ATCAAATTTGGACATGCATGTGTGTGTAAAACCATG [TGCATGCA_site309]	7.23
ATATTAGTCGAATGATGTACACACATACAAAACATT [XGTACX_site8613]	7.17
TCTACAAGGCTTGATCGTACAATTTGAATGTATTTG [XGTACX_site7698]	6.68
CTCAACATATACGTAACACACATATATATATATATA [CACACA_site3838]	9.27
AAAATAACGAGTCAAACACACATATATATATATATA [CACACA_site2039]	9.54

Sequence	gcPBM binding intensity (ln)
TATATATATATATACACACACACAAAAAAAAAAAAA [CACACA_site1505]	9.28
AGCATAAACAATTTTTGAAAAAATATACACTCATAG [CACACA_negctrl_site890]	7.04
TATGCAAGGAACCACACACACACACCCAAATGTATA [CACACA_site750]	7.17
AGATTATATATATGTATATATGTATATATTTATATA [CACACA_negctrl_site1797]	6.87
TATCTCTCTTTCTGCTGTACATAAAAATTATATAAT [XGTACX_site5961]	7.54
AACATATTTTTAAATACACACACATAAAAAAAAAAA [CACACA_site8279]	7
TCATATTTGCCTTTTTATTTAGAACACAAAAAAAAA [CACACA_negctrl_site1152]	7.23
TATATATAATATACATGTACAAATGTATTTAAAAAT [XGTACX_site6090]	7.07
AGAAAATACACGCATACACACACACCCACCCACATA [CACACA_site8115]	7.16
CAAAAAAAGAAAGCTACACACATTTATGTGCTATAT [CACACA_site2777]	6.69
ATTATAATAGTTAAATGTACACACTAACTACATGGA [XGTACX_site6918]	7.02
AATTAAAAATTCAAGTGTACTTTTATATTATTATAC [XGTACX_site4106]	7.31
ATTCGGATATATATCACACATAACTTTAATAATATA [CACACA_site5720]	6.89
TAAATAGCCAAACGCACACCCACAAAAAAAAAAAAA [CACACA_site1554]	7.34
AGAGAATATTTCCACACATGCAAATGTTATATGTAA [TGCATGCA_site282]	8.29
ATTGATTTTTAATATACACACATAAGGACCACAAAA [CACACA_site4344]	7.45
AATACGCATTTTAGTACACACTTAAAAAGTTATTTT [CACACA_site7401]	7.03
AATTATATTAATTCTTCATTACATTTTAAAATATTA [XGTACX_negctrl_site510]	6.88
TTCGTTATATTTTGATGTACTGATTCATATATATAT [XGTACX_site1835]	8.52
TGCTATTATTTATGTACACACCAATTTATTTATAAT [CACACA_site6029]	7.55
TTATAATATAAAAATAAATAAATAAATAAATAAATA [CACACA_negctrl_site1587]	7.22
TAATATTTATTCTATTGTACATAAAATATATATATA [XGTACX_site7132]	8.65
